Results published in PubChem BioAssay AID1240 (Sanford-Burnham Center for Chemical Genomics, 2008).
Out of some 50,000 compounds screened, about 800 (1.6%) showed an effect of 50% or more. This is one part of the list.

What follows are compounds tested against Bcl-2-like protein 10 (Homo sapiens) (UniProt Q9HD36) (assay: TR3 peptide-Bcl-B binding displacers, biochemical primary FP assay, phenotype converters (AID 1240;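 also: 0% = Bcl-B with tracer peptide and DMSO and 100% = tracer peptide lacking Bcl-B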)). Settings: GST-Bcl-B / FITC-TR3 peptide fluorescence polarization; stronger effect = higher value; compound at 3.75 mg/L.
Chain of UniProt Q9HD36 (Q9HD36 whole entry, looked up): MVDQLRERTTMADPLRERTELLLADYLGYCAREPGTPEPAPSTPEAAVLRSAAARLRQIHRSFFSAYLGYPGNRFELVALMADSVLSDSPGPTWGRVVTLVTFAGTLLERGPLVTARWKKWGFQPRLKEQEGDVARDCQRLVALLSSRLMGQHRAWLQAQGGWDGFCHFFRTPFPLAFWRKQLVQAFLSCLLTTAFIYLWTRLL

| Compound | displacement [%] |
| --- | --- |
| COC(=O)C1CC(=O)N(c2ccccc2)C1 (stereo not drawn) | 8.6 |
| O=C(N/N=C\c1ccc(O)cc1O)C(=O)N/N=C/c1ccc(O)cc1O | 34.1 |
| COCCCNC(=O)C(=O)Nc1ccccc1F | -11.9 |
| CC(=Nc1cc(Cl)ccc1O)c1c(-c2ccccc2)[nH]n(-c2nc3ccccc3s2)c1=O | -4.2 |
| CC(C)Cc1nnc(NC(=O)COc2ccccc2)s1 | -10.7 |
| Cc1[nH]c2c(Cl)cccc2c(=O)c1CN1CCOCC1 | 12.3 |
| CCOC(=O)c1cnn(Cc2cccc(Cl)c2)c1C | -2.7 |
| COC(=O)COc1ccc2c(-c3ccccc3)cc(=O)oc2c1C | 7.3 |
| COc1ccc(CN2CCN(C(=O)c3ccc(-c4ccccc4)cc3)CC2)c(OC)c1 | -18.7 |
| Cc1no[n+]([O-])c1COc1ccccc1C=C1C(=O)NC(=O)NC1=O | 7.7 |
| O=C(Oc1cccc(/C=C2/SC(=S)N(c3ccccc3)C2=O)c1)c1ccco1 | -17.2 |
| COC(=O)c1c(N)sc(C)c1-c1ccc(C)cc1C | -10.6 |
| COc1ccc(O)c(/C=C2\SC(=S)N(Cc3ccccc3)C2=O)c1 | 7.6 |
| Cc1cccc(C(=O)NCc2ccncc2)c1 | 5.2 |
| CCC(=O)Nc1ccc2oc(-c3ccccc3Br)nc2c1 | 8.7 |
| O=C(O)c1ccc(NC(=O)c2ccc3c(c2)C(=O)N(c2ccc([N+](=O)[O-])cc2)C3=O)cc1 | 10.6 |
| COc1nccnc1NS(=O)(=O)c1ccc(NC(=S)NC(=O)c2ccc(F)c(F)c2)cc1 | 6.6 |
| O=C(O)c1ccc(S(=O)(=O)c2ccc3c(c2)C(=O)N(c2ccc(O)c(C(=O)O)c2)C3=O)cc1 | 14.6 |
| O=C(COC(=O)C1CC(O)CN1C(=O)Oc1ccccc1)c1ccc(Cl)cc1 (stereo not drawn) | 10.1 |
| COc1ccc(C(=O)Nc2cccc(-c3nc4ccccc4s3)c2C)cc1[N+](=O)[O-] | -0.4 |
| COc1ccc(S(=O)(=O)N2CCN(C(=O)c3cccs3)CC2)cc1 | 13.7 |
| COc1ccc(Cl)cc1NC(=O)CN(CCc1ccccc1)S(=O)(=O)c1ccccc1 | 11.9 |

| Compound | displacement [%] |
| --- | --- |
| COC(=O)C1=C(C)NC2=C(C(=O)c3ccccc32)C1c1ccccc1OCc1ccc(Br)cc1 (stereo not drawn) | 16.5 |
| CCOc1ccc(N2C(=O)CC(Sc3nnc(C)s3)C2=O)cc1 (stereo not drawn) | -3.8 |
| N#C/C(=C\c1ccc(F)cc1)c1nn(CCO)c(N)c1C#N | -45.5 |
| CCOC(=O)c1cc(CC)sc1NC(=O)c1ccc(N2CCN(CC)CC2)c([N+](=O)[O-])c1 | -11 |
| O=C(COc1ccccc1[N+](=O)[O-])N=Nc1c(O)[nH]c(=O)[nH]c1=O | 12.9 |
| Clc1ccc(Cc2noc(C34CC5CC(CC(C5)C3)C4)n2)cc1 | 0.1 |
| Cc1cc(/C=C2/SC(=O)NC2=O)c(C)n1C | 28.6 |
| CCc1ccc(S(=O)(=O)Nc2c(C)cc(C)cc2C)cc1 | 3 |
| Cc1ccccc1NC(=S)NC(=O)c1ccc(Br)cc1 | 3.3 |
| COc1cc(OC)cc(C(=O)NC2CCCCCC2)c1 | -0.3 |
| O=C(N=Nc1c(O)[nH]c(=O)[nH]c1=O)c1cccc([N+](=O)[O-])c1 | 12.2 |
| O=C1OC(c2ccc(F)cc2)=N/C1=C\c1ccc(OC(=O)c2ccccc2Cl)cc1 | 13.6 |
| COc1ccc(C)cc1NC(=O)COc1ccc(Cl)cc1C | -5.2 |
| C=C(C)CNC(=S)NC1=C(C)N(C)N(c2ccccc2)C1=C | -10.7 |
| CCOc1cc(OCC)cc(C(=O)Nc2ccc(NC(=O)c3ccco3)c(OC)c2)c1 | -3.3 |
| CCN(Cc1ccccc1)C(=O)c1ccc(Cl)c([N+](=O)[O-])c1 | -3.2 |
| O=C(Cn1c2ccccc2c(=O)c2ccccc21)N/N=C/c1cc(Cl)cc(Cl)c1O | -53.1 |
| CCSCCOC(=O)C1=C(C)N(C)C(=O)NC1c1ccc(OC)cc1 (stereo not drawn) | 2.9 |
| c1ccc2c(c1)ncn2CCOCCOCCn1cnc2ccccc21 | 13.2 |
| CC1/C(=N\O)CC(c2ccco2)NC1c1ccco1 (stereo not drawn) | 8.6 |
| O=C(c1cccc(C(=O)N2CCCc3ccccc32)c1)N1CCCc2ccccc21 | -5.4 |
| CC1CCc2c(sc(NC(=O)C3CC3)c2C(=O)OC(C)C)C1 (stereo not drawn) | 1.9 |

| Compound | displacement [%] |
| --- | --- |
| O=C1CCCN1CP(=O)(O)CN1CCCC1=O | 1.7 |
| COc1cccc(N(CC(=O)NCC(C)C)S(=O)(=O)c2ccccc2)c1 | 20.5 |
| CC1=C(C)CC(C(=O)Nc2ccc(S(=O)(=O)N3CCOCC3)cc2)C(C(=O)O)C1 (stereo not drawn) | 0.1 |
| O=C(CN(c1cccc([N+](=O)[O-])c1)S(=O)(=O)c1ccccc1)Nc1ccc(F)c(Cl)c1 | 10.1 |
| O=C(Nc1c(C(=O)N2CCC(Cc3ccccc3)CC2)cnn1-c1ccccc1)c1cccc(F)c1 | 3.5 |
| c1ccc2c(CN3CCCC3)ccc(CN3CCCC3)c2c1 | 10.9 |
| COc1ccc(C(=O)N2CCN(Cc3c[nH]c4ccccc34)CC2)cc1OC | -11.1 |
| Fc1cccc(CN2CCN(Cc3ccco3)CC2)c1 | -1 |
| CN1C(=O)C(=Cc2ccc(O)c(Cl)c2)C(=O)N(C)C1=O | 4.4 |
| Nc1ccc2nc(SCc3ccc(Br)cc3)sc2c1 | -3.8 |
| O=c1c2ccccc2nc(/C=C\c2ccccc2O)n1-c1cccc2ccccc12 | -6.6 |
| O=S(=O)(Cc1ccccc1)Nc1ccccn1 | 2.2 |
| O=C(c1ccncc1)N1N=C(c2ccc(Cl)cc2)CC1(O)C(F)(F)F (stereo not drawn) | 3.5 |
| COc1ccc(NC(=O)c2ccncc2)cc1Cl | 1.2 |
| COC(=O)c1c(NC(=O)c2sc3cc(C)ccc3c2Cl)sc2c1CCCC2 | -0.6 |
| CCC(C)c1ccc(OCCOc2ccc(C=C3C(=O)NC(=S)NC3=O)cc2OC)cc1 (stereo not drawn) | 10.2 |
| CC1=NN(c2ccc(S(N)(=O)=O)cc2)C(=O)/C1=C\c1ccc(OCc2ccccc2)cc1 | 13 |
| O=C1N/C(=N/N=C/c2ccc3c(c2)OCO3)SC1c1ccccc1 (stereo not drawn) | 10.9 |
| O=c1c2c3c(sc2nc(SCc2ccccc2)n1Cc1ccccc1)CCC3 | -0.7 |
| O=C(O)c1sc2ccccc2c1Cl | 13.5 |
| CC(=O)Nc1ccccc1C(=O)N1CC(C)OC(C)C1 (stereo not drawn) | -7.2 |
| O=C1NC(=S)NC(=O)C1=Cc1ccccc1OCc1ccc([N+](=O)[O-])cc1 | 12.7 |

| Compound | displacement [%] |
| --- | --- |
| Cc1ccc(S(=O)(=O)N(CC(O)Cn2c3ccccc3c3ccccc32)CC2CCCO2)cc1 (stereo not drawn) | 0.4 |
| O=S(=O)(Nc1nc2ccccc2nc1NCc1ccccc1)c1ccc(Cl)cc1 | 10.1 |
| C=CCN1C(=O)/C(=C\c2ccc(OCc3ccccc3F)c(OC)c2)C(=O)NC1=S | -0.9 |
| COc1ccc(CN2CCN(C3CCCCCC3)CC2)c(OC)c1OC | -14.3 |
| CCOC(=O)C1=C(C)N=C2SCC(=O)N2C1c1ccc2c(c1)OCO2 (stereo not drawn) | -15.6 |
| CCOc1cc(C2C(C(=O)OCCSCC)=C(C)NC3=C2C(=O)CC(c2ccc(Cl)cc2)C3)cc(Cl)c1O (stereo not drawn) | -20.8 |
| O=C(Nc1ccc(Cl)cn1)c1ccc(OCc2ccccc2)cc1 | 3.7 |
| COc1ccc(Br)cc1C=C1C(=O)N(C)C(=O)N(C)C1=O | 1.2 |
| O=C1CC(c2ccccc2)CC(O)=C1C=Nc1ccc(Br)cc1 (stereo not drawn) | -3.8 |
| Cc1cc(C)cc(OCC(O)CNC(C)(C)C)c1 (stereo not drawn) | 7.4 |
| CN(C)c1ccc(/C=N/NC(=O)CNC(=O)c2ccc(F)cc2)cc1 | 2.3 |
| CC(=O)N/C(=C\c1ccc(F)cc1)C(=O)NC(C(=O)O)C(C)C (stereo not drawn) | 81.8 |
| Cc1nn(CC(=O)O)c(=O)c2ccccc12 | -3.8 |
| O=C1CC(c2ccccc2)CC2=C1C(c1ccccc1Cl)Nc1ccccc1N2 (stereo not drawn) | -7.2 |
| COc1ccc(CC(=O)NCc2ccc3c(c2)OCO3)cc1 | -3.7 |
| CCN(CC)c1ccc(Nc2nc(-c3sc(N)nc3C)cs2)cc1 | -13.5 |
| Cc1nc(SCC#N)c(C#N)c(C)c1C | -1.7 |
| O=C(N/N=C/c1cn(Cc2ccccc2)c2ccccc12)C1COc2ccccc2O1 (stereo not drawn) | -2.4 |
| CCC1CCCCN1C(=O)c1cnn2c(C(F)(F)F)cc(-c3ccc(C)cc3)nc12 (stereo not drawn) | 44.8 |
| Cc1ccc(C(=O)Nc2cccc(F)c2)cc1S(=O)(=O)N1CCOCC1 | -14.9 |
| CC1(C)CC(NC(=O)COc2cccc3ccccc23)CC(C)(C)N1 | -4 |
| CN(C)c1ccc(/C=N/N=C2/NC(=O)C(c3ccccc3)(c3ccccc3)S2)cc1 | -4.8 |

| Compound | displacement [%] |
| --- | --- |
| CCOc1ccc(C(=O)Nc2cc(C)ccn2)cc1[N+](=O)[O-] | 1.6 |
| CCOc1cccc(C(=O)Nc2nc(-c3ccc(C)cc3)cs2)c1 | -2.7 |
| O=C(O)CCC(C(=O)O)N1C(=O)/C(=C\C(Cl)=C/c2ccc([N+](=O)[O-])cc2)SC1=S (stereo not drawn) | 32.9 |
| COc1ccc(Br)cc1/C=N\N1CCN(c2ccccc2OC)CC1 | 3.9 |
| Cc1ccc(N2C(=O)C3CCCCC3C2=O)cc1Cl (stereo not drawn) | -11 |
| O=C(/C=C/c1ccccc1Cl)NCCN1CCOCC1 | 2.8 |
| Cc1c(Cc2ccccc2)sc(NC(=O)CCc2ccccc2)c1C(N)=O | -9.6 |
| Cc1c(N=Cc2cc3c(cc2Cl)OCO3)c(=O)n(-c2ccccc2)n1C | 5.2 |
| Cc1ccc(NC(=O)C2CCCN2S(=O)(=O)c2ccc(C)cc2)cc1 (stereo not drawn) | 13.4 |
| Cc1ccc(NCC(=O)N/N=C\c2c(Br)cc(Br)c(O)c2Br)cc1 | 6.9 |
| CC(Oc1ccccc1)C(=O)Nc1cccc([N+](=O)[O-])c1 (stereo not drawn) | 5.1 |
| CCOC(=O)c1sc(NC(=O)COc2ccc(Cl)cc2C)c(C(=O)OCC)c1C | -5.1 |
| Cc1ccc2nc(/C(C#N)=C\c3ccc([N+](=O)[O-])o3)[nH]c2c1 | -8.8 |
| COc1ccc(/C(O)=C/c2nc3ccccc3n(-c3ccccc3)c2=O)cc1 | -5.5 |
| CCOc1c(Br)cc(/C=C2/C(=O)N(c3ccccc3)N=C2C)cc1OC | -0.6 |
| C=C(C)C(=O)Oc1ccc(N2C(=O)CCC2=O)cc1 | 5.8 |
| NC(=O)NC(Cc1ccccc1)Cc1ccccc1 | 0.2 |
| COc1ccc(OC)c(NC(=O)c2ccccc2N(Cc2ccccc2)S(=O)(=O)c2ccccc2)c1 | 1.9 |
| Cc1cc(C)cc(-n2c(C)cc(/C=N/NC(=O)c3cccnc3)c2C)c1 | 30.2 |
| CCn1c(-c2ccc(C(C)(C)C)cc2)n[nH]c1=S | -17.4 |
